# Source: publication PMC5892938
# Some of the results follow. At the low end of the ranking the order means little.
# Target: GST-SBP-SLBP (stem-loop binding protein) (UniProt Q14493)
# Experiment: targeted RNA Bind-n-Seq;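 further: DESeq read counts versus GST-SBP nonspecific binding control pulldown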
# Settings: RBNS binding buffer: 25 mM Tris pH 7.5, 150 mM KCl, 3 mM MgCl2, 0.1% Tween, 0.5 mg/mL BSA, 1 mM DTT; 27 nM protein, 750 pM RNA pool; temperature not stated; high values mean tight binding
row,Sequence,binding signal (log2 fold change)
1,GGUCACGUCUCAAUCAACUCUAAAGAGGGGGGGAAAACCCCUUUGCCCUCCAUUUCAACAGCUCGCAGUCAAG,-0.274
2,GGUCACGUCUCAAUCAACUCUUCCUCCAGGGAAACCCCUGGUAAACUCAACAGCUCGCAGUCAAG,-0.163
3,GGUCACGUCUCAAUCAACUCAAUCUCAGGAGUUUCCUCCUGCUUAUUCAACAGCUCGCAGUCAAG,-0.0882
4,GGUCACGUCUCAAUCAACUCAUCAGAGGGGGGGAAAACCCCUUUACCCUCCACUUCAACAGCUCGCAGUCAAG,0.0364
5,GGUCACGUCUCAAUCAACUCAUAAGAGGGGGGGAAAACCCCUUUACCCUCAUCGUCAACAGCUCGCAGUCAAG,-0.254
6,GGUCACGUCUCAAUCAACUCCAACGAGGGGGGGAAAACCCCUUUACCCUCAUUCUCAACAGCUCGCAGUCAAG,-0.222
7,GGUCACGUCUCAAUCAACUCCUUCGAGGGGGGGAAAACCCCUUUACCCUCAUACUCAACAGCUCGCAGUCAAG,0.0404
8,GGUCACGUCUCAAUCAACUCAUUCUCCAGGGAAAACCCUGGUUUAUUCAACAGCUCGCAGUCAAG,0.134
9,GGUCACGUCUCAAUCAACUCAACUUCCAGGGAAAACCCUGGCUAAUUCAACAGCUCGCAGUCAAG,-0.0938
10,GGUCACGUCUCAAUCAACUCUUUCUCAGGAGUUUACUCCUGUAAUUUCAACAGCUCGCAGUCAAG,0.0846
11,GGUCACGUCUCAAUCAACUCAACUCCCAGGGAAAGCCCUGGUAUUUUCAACAGCUCGCAGUCAAG,-0.146
12,GGUCACGUCUCAAUCAACUCUAUCCCCAGGGAAAUCCCUGGUUAUCUCAACAGCUCGCAGUCAAG,-0.0336
13,GGUCACGUCUCAAUCAACUCUAUCUCCAGGGAAAACCCUGGUUAUUUCAACAGCUCGCAGUCAAG,0.11
14,GGUCACGUCUCAAUCAACUCAGUCUCCAGGGAAAUCCCUGGUUAAUUCAACAGCUCGCAGUCAAG,-0.391
15,GGUCACGUCUCAAUCAACUCUAUUUCAGGAGUUUACUCCUGUUUUGUCAACAGCUCGCAGUCAAG,0.118
16,GGUCACGUCUCAAUCAACUCUACGGCAGGAGUUUACUCCUGGAUAUUCAACAGCUCGCAGUCAAG,0.0824
17,GGUCACGUCUCAAUCAACUCAUUCCCAGGAGUUUUCUCCUGUUUUCUCAACAGCUCGCAGUCAAG,-0.0662
18,GGUCACGUCUCAAUCAACUCUUCCCCCAGGGAAAGCCCUGGUUUUCUCAACAGCUCGCAGUCAAG,0.0161
19,GGUCACGUCUCAAUCAACUCUUUCUCCAGGGAAAUCCCUGGCUAUUUCAACAGCUCGCAGUCAAG,-0.0809
20,GGUCACGUCUCAAUCAACUCAUCUCCCAGGGAAAGCCCUGGUAUUCUCAACAGCUCGCAGUCAAG,0.0751
21,GGUCACGUCUCAAUCAACUCUACUUCAGGAGUUUUCUCCUGUAUUCUCAACAGCUCGCAGUCAAG,0.0231
22,GGUCACGUCUCAAUCAACUCUAUCUCAGGAGUUUACUCCUGCAUUCUCAACAGCUCGCAGUCAAG,0.0673
23,GGUCACGUCUCAAUCAACUCAUCUUCAGGAGUUUACUCCUGCAAUCUCAACAGCUCGCAGUCAAG,0.128
24,GGUCACGUCUCAAUCAACUCAUCCGCAGGAGUUUACUCCUGGAAUUUCAACAGCUCGCAGUCAAG,-0.0448
25,GGUCACGUCUCAAUCAACUCAAUCUCAGGAGUUUACUCCUGUAUUUUCAACAGCUCGCAGUCAAG,0.249

row,Sequence,binding signal (log2 fold change)
1,GGUCACGUCUCAAUCAACUCAAUUCCCAGGGAAAACCCUGGUUUUUUCAACAGCUCGCAGUCAAG,-0.143
2,GGUCACGUCUCAAUCAACUCAAGUCCCAGGGAAAUCCCUGGCAUAUUCAACAGCUCGCAGUCAAG,-0.126
3,GGUCACGUCUCAAUCAACUCUUUUUCCAGGGAAAUCCCUGGUAAUUUCAACAGCUCGCAGUCAAG,0.214
4,GGUCACGUCUCAAUCAACUCUACUCCAGGAGUUUACUCCUGCAAAUUCAACAGCUCGCAGUCAAG,-0.0281
5,GGUCACGUCUCAAUCAACUCAUUCCCCAGGGAAAACCCUGGUAAUUUCAACAGCUCGCAGUCAAG,0.0294
6,GGUCACGUCUCAAUCAACUCUAUCCCAGGAGUUUACUCCUGUAUAUUCAACAGCUCGCAGUCAAG,0.162
7,GGUCACGUCUCAAUCAACUCAUUCUCCAGGGAAAGCCCUGGCAUUCUCAACAGCUCGCAGUCAAG,-0.15
8,GGUCACGUCUCAAUCAACUCAACUUCCAGGGAAAGCCCUGGUAAACUCAACAGCUCGCAGUCAAG,-0.0505
9,GGUCACGUCUCAAUCAACUCUUCUCCAGGAGUUUCCUCCUGCUUAUUCAACAGCUCGCAGUCAAG,-0.0141
10,GGUCACGUCUCAAUCAACUCUACUUCCAGGGAAAACCCUGGCAUUUUCAACAGCUCGCAGUCAAG,-0.0301
11,GGUCACGUCUCAAUCAACUCAUCUUCAGGAGUUUACUCCUGCUUACUCAACAGCUCGCAGUCAAG,-0.133
12,GGUCACGUCUCAAUCAACUCAAGUCCAGGAGUUUUCUCCUGUUUAUUCAACAGCUCGCAGUCAAG,0.000656
13,GGUCACGUCUCAAUCAACUCCUCAGAGGGGGGGAAAACCCCUUUGCCCUCACAAUCAACAGCUCGCAGUCAAG,-0.188
14,GGUCACGUCUCAAUCAACUCAUCCCCCAGGGAAAUCCCUGGUAUAUUCAACAGCUCGCAGUCAAG,-0.138
15,GGUCACGUCUCAAUCAACUCUUUCCCCAGGGAAAGCCCUGGUUUAUUCAACAGCUCGCAGUCAAG,0.27
16,GGUCACGUCUCAAUCAACUCUUUAGAGGGGGGGAAAACCCCUUUGCCCUCCAUUUCAACAGCUCGCAGUCAAG,-0.134
17,GGUCACGUCUCAAUCAACUCAUCCGAGGGGGGGAAAACCCCUUUACCCUCAUAAUCAACAGCUCGCAGUCAAG,0.262
18,GGUCACGUCUCAAUCAACUCAAGUCCAGGAGUUUUCUCCUGCAAUGUCAACAGCUCGCAGUCAAG,0.183
19,GGUCACGUCUCAAUCAACUCCUCAGAGGGGGGGAAAACCCCUUUACCCUCAUCUUCAACAGCUCGCAGUCAAG,0.19
20,GGUCACGUCUCAAUCAACUCAUUUUCAGGAGUUUACUCCUGCUUACUCAACAGCUCGCAGUCAAG,-0.189
21,GGUCACGUCUCAAUCAACUCUCAAGAGGGGGGGAAAACCCCUUUACCCUCCAAAUCAACAGCUCGCAGUCAAG,-0.129
22,GGUCACGUCUCAAUCAACUCUAUCCCCAGGGAAAACCCUGGCUUUCUCAACAGCUCGCAGUCAAG,-0.247
23,GGUCACGUCUCAAUCAACUCAUACGAGGGGGGGAAAACCCCUUUACCCUCAUAAUCAACAGCUCGCAGUCAAG,-0.061
24,GGUCACGUCUCAAUCAACUCAUCUUCAGGAGUUUGCUCCUGUUAUUUCAACAGCUCGCAGUCAAG,-0.0236
25,GGUCACGUCUCAAUCAACUCAAUUCCCAGGGAAAUCCCUGGUUUACUCAACAGCUCGCAGUCAAG,0.242

row,Sequence,binding signal (log2 fold change)
1,GGUCACGUCUCAAUCAACUCUUCCCCCAGGGAAACCCCUGGUAAUCUCAACAGCUCGCAGUCAAG,0.19
2,GGUCACGUCUCAAUCAACUCUCUCGAGGGGGGGAAAACCCCUUUACCCUCUUCAUCAACAGCUCGCAGUCAAG,0.298
3,GGUCACGUCUCAAUCAACUCCCUAGAGGGGGGGAAAACCCCUUUGCCCUCAACUUCAACAGCUCGCAGUCAAG,-0.406
4,GGUCACGUCUCAAUCAACUCAAUCUCAGGAGUUUUCUCCUGUUAACUCAACAGCUCGCAGUCAAG,0.146
5,GGUCACGUCUCAAUCAACUCAGUUUCAGGAGUUUACUCCUGUUUUUUCAACAGCUCGCAGUCAAG,-0.0741
6,GGUCACGUCUCAAUCAACUCAAUUUCCAGGGAAAACCCUGGCGUUUUCAACAGCUCGCAGUCAAG,-0.177
7,GGUCACGUCUCAAUCAACUCAAUAGAGGGGGGGAAAACCCCUUUGCCCUCAUUAUCAACAGCUCGCAGUCAAG,-0.217
8,GGUCACGUCUCAAUCAACUCUAUCCCCAGGGAAAGCCCUGGUUAACUCAACAGCUCGCAGUCAAG,-0.158
9,GGUCACGUCUCAAUCAACUCUCUAGAGGGGGGGAAAACCCCUUUGCCCUCGUAUUCAACAGCUCGCAGUCAAG,-0.0875
10,GGUCACGUCUCAAUCAACUCCCUAGAGGGGGGGAAAACCCCUUUACCCUCGAAAUCAACAGCUCGCAGUCAAG,-0.494
11,GGUCACGUCUCAAUCAACUCUAUUCCCAGGGAAAGCCCUGGUUAUCUCAACAGCUCGCAGUCAAG,0.0233
12,GGUCACGUCUCAAUCAACUCUUUUUCCAGGGAAAUCCCUGGCUAAUUCAACAGCUCGCAGUCAAG,0.0626
13,GGUCACGUCUCAAUCAACUCAUCUUCAGGAGUUUGCUCCUGCUAUUUCAACAGCUCGCAGUCAAG,-0.0773
14,GGUCACGUCUCAAUCAACUCUAUUCCAGGAGUUUACUCCUGCUUUUUCAACAGCUCGCAGUCAAG,0.125
15,GGUCACGUCUCAAUCAACUCCUAAGAGGGGGGGAAAACCCCUUUGCCCUCCGUAUCAACAGCUCGCAGUCAAG,-0.392
16,GGUCACGUCUCAAUCAACUCUUCAGAGGGGGGGAAAACCCCUUUACCCUCCUAAUCAACAGCUCGCAGUCAAG,0.368
17,GGUCACGUCUCAAUCAACUCAUUCCCAGGAGUUUCCUCCUGCUAAUUCAACAGCUCGCAGUCAAG,0.138
18,GGUCACGUCUCAAUCAACUCAUAAGAGGGGGGGAAAACCCCUUUACCCUCCAUAUCAACAGCUCGCAGUCAAG,-0.599
19,GGUCACGUCUCAAUCAACUCAUCCUCAGGAGUUUACUCCUGUAAAGUCAACAGCUCGCAGUCAAG,0.00197
20,GGUCACGUCUCAAUCAACUCUAUCUCCAGGGAAACCCCUGGUAAAUUCAACAGCUCGCAGUCAAG,-0.2
21,GGUCACGUCUCAAUCAACUCUUAAGAGGGGGGGAAAACCCCUUUGCCCUCGAUAUCAACAGCUCGCAGUCAAG,-0.0391
22,GGUCACGUCUCAAUCAACUCAAUUUCCAGGGAAACCCCUGGCUAUCUCAACAGCUCGCAGUCAAG,0.25
23,GGUCACGUCUCAAUCAACUCUAUCCCAGGAGUUUUCUCCUGUAUUCUCAACAGCUCGCAGUCAAG,0.0397
24,GGUCACGUCUCAAUCAACUCUUCCUCCAGGGAAAACCCUGGCAAUGUCAACAGCUCGCAGUCAAG,-0.274
